The IC50 comes from the fitted curve, where viability falls to half of the control; where the fit passes the top or lowest dose, that dose stands as a limit. For AUC the same curve is integrated over the 256-fold range of doses and scaled to a fraction; values near 1 show little effect. For some of these results: Any top dose called inferred was derived from the fitted curves, not read from the paper.
Columns and labels:
Experiment in all cases: Viability of human cancer cell lines after 72 h of drug (GDSC screen)
[1] = compound: C=C(c1ccc(C(=O)O)cc1)c1cc2c(cc1C)C(C)(C)CCC2(C)C [Bexarotene]; conditions: top dose 8 µM
Experimental: (§1)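 Human cancer cell lines in 384-well plates, medium with 10% serum, drug for 72 h over a 256-fold dose range (nine 2-fold or five 4-fold steps up to the top dose). Adherent lines were fixed and stained with the nucleic acid dye Syto60, suspension lines read with resazurin; signal relative to control wells, capped at 0 and 100%. One two-parameter sigmoid per drug and line, fitted in a mixed model over all curves with the slope shared within a line.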

[2] = compound: COc1cc(C(=O)NC2CCN(C)CC2)ccc1Nc1ncc2c(n1)N(C1CCCC1)C(C)CC(=O)N2C [NPK76-II-72-1]; conditions: top dose 10.24 µM; top dose inferred
Experimental: as §1

[3] = compound: COc1cc([C@@H]2c3cc4c(cc3[C@@H](O[C@@H]3O[C@@H]5CO[C@@H](C)O[C@H]5[C@H](O)[C@H]3O)[C@H]3COC(=O)[C@H]23)OCO4)cc(OC)c1O [Etoposide]; conditions: top dose 16 µM
Experimental: as §1

[4] = compound: COc1ccc(C(=O)CC2(O)C(=O)Nc3c(Cl)ccc(Cl)c32)cc1 [YK 4-279]; conditions: top dose 10 µM
Experimental: as §1

[5] = compound: Cc1ccc2nc(NCCN)c3ncc(C)n3c2c1 [BMS-345541]; conditions: top dose 16 µM
Experimental: as §1

[6] = compound: NC(=O)Nc1cc(-c2cccc(F)c2)sc1C(=O)N[C@H]1CCCNC1 [AZD7762]; conditions: top dose 2 µM
Experimental: as §1

[7] = compound: O=C(O)c1ccc(-c2c[nH]c3ncc(-c4ccccc4)cc23)cc1C1CCCC1 [GSK-650394]; conditions: top dose 16 µM; top dose inferred
Experimental: as §1

[8] = compound: Oc1nc(-c2ccc(C(F)(F)F)cc2)nc2c1CSCC2 [XAV 939]; conditions: top dose 5 µM; top dose inferred
Experimental: as §1

## CAL-78 (chondrosarcoma, adherent)
[1]
  AUC: 0.922
  IC50: > 8 µM
[2]
  AUC: 0.842
  IC50: 8.81 µM
[3]
  AUC: 0.899
  IC50: > 16 µM
[4]
  AUC: 0.764
  IC50: 4.13 µM
[5]
  AUC: 0.974
  IC50: > 16 µM
[6]
  AUC: 0.698
  IC50: 492 nM
[7]
  AUC: 0.986
  IC50: > 16 µM
[8]
  AUC: 0.985
  IC50: > 5 µM

## CAL-85-1 (breast, adherent)
[1]
  AUC: 0.94
  IC50: > 8 µM
[2]
  AUC: 0.951
  IC50: > 10.2 µM
[3]
  AUC: 0.608
[4]
  AUC: 0.757
  IC50: 4.34 µM
[5]
  AUC: 0.861
  IC50: > 16 µM
[6]
  AUC: 0.864
  IC50: > 2000 nM
[7]
  AUC: 0.783
  IC50: 8.82 µM
[8]
  AUC: 0.953
  IC50: > 5 µM

## CAL-120 (breast, adherent)
[1]
  AUC: 0.949
  IC50: > 8 µM
[2]
  AUC: 0.792
  IC50: 6.19 µM
[3]
  AUC: 0.784
  IC50: 8.93 µM
[4]
  AUC: 0.777
  IC50: 5.23 µM
[5]
  AUC: 0.964
  IC50: > 16 µM
[6]
  AUC: 0.901
  IC50: > 2000 nM
[7]
  AUC: 0.881
  IC50: > 16 µM
[8]
  AUC: 0.944
  IC50: > 5 µM

## CAS-1 (glioma, adherent)
[1]
  AUC: 0.935
  IC50: > 8 µM
[2]
  AUC: 0.893
  IC50: > 10.2 µM
[3]
  AUC: 0.796
  IC50: 10.9 µM
[4]
  AUC: 0.862
  IC50: > 10 µM
[5]
  AUC: 0.974
  IC50: > 16 µM
[6]
  AUC: 0.799
  IC50: 1390 nM
[7]
  AUC: 0.777
  IC50: 9.02 µM
[8]
  AUC: 0.93
  IC50: > 5 µM

## CCF-STTG1 (glioma, adherent)
[1]
  AUC: 0.875
  IC50: 7.96 µM
[2]
  AUC: 0.911
  IC50: > 10.2 µM
[3]
  AUC: 0.748
  IC50: 5.19 µM
[4]
  AUC: 0.751
  IC50: 3.32 µM
[5]
  AUC: 0.988
  IC50: > 16 µM
[6]
  AUC: 0.693
  IC50: 436 nM
[7]
  AUC: 0.797
  IC50: 7.6 µM
[8]
  AUC: 0.987
  IC50: > 5 µM

## CCK-81 (large intestine, adherent)
[1]
  AUC: 0.969
  IC50: > 8 µM
[2]
  AUC: 0.92
  IC50: > 10.2 µM
[3]
  AUC: 0.958
  IC50: > 16 µM
[4]
  AUC: 0.955
  IC50: > 10 µM
[5]
  AUC: 0.845
  IC50: 10.5 µM
[6]
  AUC: 0.797
  IC50: 879 nM
[7]
  AUC: 0.932
  IC50: > 16 µM
[8]
  AUC: 0.989
  IC50: > 5 µM

## CESS (acute myeloid leukaemia, suspension)
[1]
  AUC: 0.953
  IC50: > 8 µM
[2]
  AUC: 0.336
  IC50: 0.241 µM
[3]
  AUC: 0.343
  IC50: 0.394 µM
[4]
  AUC: 0.637
  IC50: 1.4 µM
[5]
  AUC: 0.887
  IC50: 13.5 µM
[6]
  AUC: 0.905
  IC50: > 2000 nM
[7]
  AUC: 0.85
  IC50: 9.54 µM
[8]
  AUC: 0.976
  IC50: > 5 µM

## CHL-1 (melanoma, adherent)
[1]
  AUC: 0.897
  IC50: > 8 µM
[2]
  AUC: 0.667
  IC50: 1.81 µM
[3]
  AUC: 0.37
  IC50: 0.449 µM
[4]
  AUC: 0.655
  IC50: 1.64 µM
[5]
  AUC: 0.884
  IC50: 15.5 µM
[6]
  AUC: 0.74
  IC50: 577 nM
[7]
  AUC: 0.67
  IC50: 2.88 µM
[8]
  AUC: 0.976
  IC50: > 5 µM

## CHSA0011 (chondrosarcoma, adherent)
[1]
  AUC: 0.98
  IC50: > 8 µM
[2]
  AUC: 0.946
  IC50: > 10.2 µM
[3]
  AUC: 0.972
  IC50: > 16 µM
[4]
  AUC: 0.862
  IC50: > 10 µM
[5]
  AUC: 0.866
  IC50: > 16 µM
[6]
  AUC: 0.706
  IC50: 611 nM
[7]
  AUC: 0.98
  IC50: > 16 µM
[8]
  AUC: 0.948
  IC50: > 5 µM

## CHSA0108 (chondrosarcoma, adherent)
[1]
  AUC: 0.973
  IC50: > 8 µM
[2]
  AUC: 0.715
  IC50: 2.89 µM
[3]
  AUC: 0.731
  IC50: 5.1 µM
[4]
  AUC: 0.781
  IC50: 4.82 µM
[5]
  AUC: 0.873
  IC50: > 16 µM
[6]
  AUC: 0.669
  IC50: 400 nM
[7]
  AUC: 0.961
  IC50: > 16 µM
[8]
  AUC: 0.957
  IC50: > 5 µM

## CHSA8926 (chondrosarcoma, adherent)
[1]
  AUC: 0.98
  IC50: > 8 µM
[2]
  AUC: 0.815
  IC50: 8.94 µM
[3]
  AUC: 0.833
  IC50: > 16 µM
[4]
  AUC: 0.726
  IC50: 3.66 µM
[5]
  AUC: 0.906
  IC50: > 16 µM
[6]
  AUC: 0.769
  IC50: 1080 nM
[7]
  AUC: 0.977
  IC50: > 16 µM
[8]
  AUC: 0.961
  IC50: > 5 µM

## COLO-320-HSR (large intestine, suspension)
[1]
  AUC: 0.982
  IC50: > 8 µM
[2]
  AUC: 0.886
  IC50: 8.68 µM
[3]
  AUC: 0.824
  IC50: 7.9 µM
[4]
  AUC: 0.802
  IC50: 4.16 µM
[5]
  AUC: 0.704
  IC50: 3.43 µM
[6]
  AUC: 0.677
  IC50: 362 nM
[7]
  AUC: 0.951
  IC50: > 16 µM
[8]
  AUC: 0.987
  IC50: > 5 µM

## COLO-668 (small cell lung carcinoma, adherent)
[1]
  AUC: 0.968
  IC50: > 8 µM
[2]
  AUC: 0.899
  IC50: > 10.2 µM
[3]
  AUC: 0.611
  IC50: 2.01 µM
[4]
  AUC: 0.927
  IC50: > 10 µM
[5]
  AUC: 0.69
  IC50: 3.42 µM
[6]
  AUC: 0.888
  IC50: > 2000 nM
[7]
  AUC: 0.94
  IC50: > 16 µM
[8]
  AUC: 0.988
  IC50: > 5 µM

## COLO-678 (large intestine, semi-adherent)
[1]
  AUC: 0.98
  IC50: > 8 µM
[2]
  AUC: 0.978
  IC50: > 10.2 µM
[3]
  AUC: 0.972
  IC50: > 16 µM
[4]
  AUC: 0.97
  IC50: > 10 µM
[5]
  AUC: 0.952
  IC50: > 16 µM
[6]
  AUC: 0.93
  IC50: > 2000 nM
[7]
  AUC: 0.985
  IC50: > 16 µM
[8]
  AUC: 0.983
  IC50: > 5 µM

## COLO-679 (melanoma, adherent)
[1]
  AUC: 0.984
  IC50: > 8 µM
[2]
  AUC: 0.979
  IC50: > 10.2 µM
[3]
  AUC: 0.261
  IC50: 0.189 µM
[4]
  AUC: 0.829
  IC50: 7.28 µM
[5]
  AUC: 0.839
  IC50: 12.9 µM
[6]
  AUC: 0.541
  IC50: 164 nM
[7]
  AUC: 0.72
  IC50: 4.57 µM
[8]
  AUC: 0.95
  IC50: > 5 µM

## COLO-680N (oesophagus, adherent)
[1]
  AUC: 0.974
  IC50: > 8 µM
[2]
  AUC: 0.984
  IC50: > 10.2 µM
[3]
  AUC: 0.769
  IC50: 7.17 µM
[4]
  AUC: 0.901
  IC50: > 10 µM
[5]
  AUC: 0.905
  IC50: > 16 µM
[6]
  AUC: 0.918
  IC50: > 2000 nM
[7]
  AUC: 0.983
  IC50: > 16 µM
[8]
  AUC: 0.985
  IC50: > 5 µM

## COLO-684 (endometrium, suspension)
[1]
  AUC: 0.971
  IC50: > 8 µM
[2]
  AUC: 0.808
  IC50: 6.1 µM
[3]
  AUC: 0.828
  IC50: 11.5 µM
[4]
  AUC: 0.935
  IC50: > 10 µM
[5]
  AUC: 0.7
  IC50: 3.95 µM
[6]
  AUC: 0.626
  IC50: 291 nM
[7]
  AUC: 0.806
  IC50: 9.34 µM
[8]
  AUC: 0.966
  IC50: > 5 µM
